From article PMC6919601, “Identification of Plasmodium dipeptidyl aminopeptidase allosteric inhibitors by high throughput screening” (PLoS ONE, 2019)
The campaign covered roughly 110,000 compounds. About 230 (0.21%) showed an effect of 50% or more. The list shows a part of the results. Where a SMILES comes first, the peptide text is derived from it.

Biological target: DPAP1 (Plasmodium falciparum, UniProt Q8IIJ9)
Assay: primary screen, percent inhibition; read by cleavage of a fluorogenic dipeptide substrate; higher = more effect of the substance
Parameters: species or system P. falciparum D10 trophozoite lysates; single well
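Also: 30 min substrate incubation versus DMSO and 10 µM JCP410 controls.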

DPAP1, sequence (Q8IIJ9 whole entry, looked up): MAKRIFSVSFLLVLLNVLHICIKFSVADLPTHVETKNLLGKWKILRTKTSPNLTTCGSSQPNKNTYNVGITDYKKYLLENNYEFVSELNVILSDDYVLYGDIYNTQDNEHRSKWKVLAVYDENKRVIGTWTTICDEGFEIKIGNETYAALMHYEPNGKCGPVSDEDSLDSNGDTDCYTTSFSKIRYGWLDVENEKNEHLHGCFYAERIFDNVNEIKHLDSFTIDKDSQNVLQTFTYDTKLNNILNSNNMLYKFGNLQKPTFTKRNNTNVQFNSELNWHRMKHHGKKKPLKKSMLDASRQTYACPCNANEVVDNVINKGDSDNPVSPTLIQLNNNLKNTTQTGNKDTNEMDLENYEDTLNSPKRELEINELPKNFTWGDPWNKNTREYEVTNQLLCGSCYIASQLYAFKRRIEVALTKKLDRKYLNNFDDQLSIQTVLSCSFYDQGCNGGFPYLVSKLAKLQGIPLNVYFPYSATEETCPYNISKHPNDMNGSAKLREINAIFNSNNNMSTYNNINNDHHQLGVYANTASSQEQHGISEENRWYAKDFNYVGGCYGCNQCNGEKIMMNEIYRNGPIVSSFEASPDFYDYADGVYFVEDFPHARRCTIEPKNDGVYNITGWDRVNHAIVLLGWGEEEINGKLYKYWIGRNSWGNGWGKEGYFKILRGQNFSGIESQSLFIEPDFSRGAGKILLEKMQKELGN

Row | Compound | % Inhibition @ 10 uM
1 | CCCC(=O)NCn1nnc(-c2ccncc2)n1 | 4.19%
2 | COc1ccccc1NC(=O)[C@@H]1C2C=CC(C2)[C@@H]1C(=O)O (some centres unmarked) | 0.774%
3 | CCC(CC)=C(C#N)C(=O)Nc1ccc(Cl)cc1 | -0.883%
4 | CCOc1c(Cl)cc(C(=O)Nc2cccc(C(C)=O)c2)cc1Cl | 14.1%
5 | CCOc1ccccc1N1CCN(S(C)(=O)=O)CC1 | -0.95%
6 | Cc1[nH]c2c(C)ccc(F)c2c1CCNC(=O)COc1ccc(F)cc1F | -0.891%
7 | O=C(C1Sc2nnc(-c3ccccc3)n2NC1c1ccc(Cl)cc1)N1CCOCC1 (centres unmarked) | 1.72%
8 | CCO/C(O)=C1\C(C)=Nc2nnnn2C1c1ccc(OC)c(OC)c1 (centres unmarked) | 1.39%
9 | CCc1nn2c(=O)cc(COc3ccc(/C=C(\C#N)c4nc5ccccc5[nH]4)cc3)nc2s1 | -0.495%
10 | Cc1ccc(Cn2c3ccccc3n3cc(C)nc23)cc1 | 3.04%
11 | Cn1c(=O)c2ccccc2n2c(CCC(=O)NC3CCN(Cc4ccccc4)CC3)nnc12 | 5.68%
12 | CSc1ccc(/C=C2\CN(C)CC3=C2OC(N)=C(C#N)C3c2ccc(SC)cc2)cc1 (centres unmarked) | 2.38%
13 | CCc1ccc(CN2CCN(C(=O)c3cccc(OC)c3)CC2)cc1 | -1.98%
14 | C=Cc1ccc(Cn2c(C(=O)O)c(CNCc3cccc(Cl)c3)c3ccccc32)cc1 | 6.59%
15 | CCc1nnc(NC(=O)CSc2nc(C(F)(F)F)cc(C)c2C#N)s1 | 59.2%
16 | CCN1CCC(N2CCC(C)CC2)CC1 | 1.57%
17 | CCCN1CCCC(C(N)=O)C1 (centres unmarked) | -0.222%
18 | Cc1ccc(C(=O)CCC(=O)NC(Cc2ccccc2)c2ccccc2)cc1 (centres unmarked) | 3.47%
19 | COc1ccccc1OCC(O)CN1CCC(C)CC1 (centres unmarked) | -1.47%
20 | Cc1cccc(OCC(=O)N(Cc2ccco2)Cc2ccco2)c1C | 5.43%
21 | COc1cc(C(=O)N2CCN(c3ccc(C)c(C)c3)CC2)cc(OC)c1OC | -1.02%
22 | COc1ccc(-c2cc(C(F)(F)F)nc(SCC(=O)N3CCCCC3C)n2)cc1 (centres unmarked) | 0.778%
23 | Cc1ccc2c(c1)cc1c(=O)n(CC(=O)N3CCC(Cc4ccccc4)CC3)nc(C)n12 | 3.29%
24 | CSC1=C(C#N)C2(CCCC2)C(C#N)C(=O)N1 (centres unmarked) | -0.239%
25 | O=C(Cn1c2c(c(-c3ccccc3Cl)cc1=O)CCC2)NCc1cccs1 | -1.46%

Row | Compound | % Inhibition @ 10 uM
26 | Cc1ccc(C)c(NC(=O)c2ccc(N3C(=O)C4C5C=CC(C5)C4C3=O)cc2)c1 (centres unmarked) | -5.14%
27 | CC(C)SC1=NN2CCCC(=O)N=C2S1 | 4.49%
28 | CC(C)(C)CC(=O)Nc1ccc(S(=O)(=O)N2CCCC2)cc1 | -1.04%
29 | COc1ccc(S(=O)(=O)NC(C)c2ccccc2)cc1-c1nnc2c3ccccc3c(C)nn12 (centres unmarked) | 0.628%
30 | Cc1onc(-c2c(Cl)cccc2Cl)c1C(=O)NCc1ccc2c(c1)OCO2 | -5.28%
31 | COc1ccccc1CN1CCN(Cc2ccc(Br)cc2)CC1 | 11.5%
32 | Cc1ccc(CN2CCCN(Cc3c(F)cccc3Cl)S2(=O)=O)cc1 | -1.59%
33 | Cc1c(NC(=O)c2cccs2)c(=O)n(-c2ccccc2)n1C | 2.22%
34 | COc1ccc(C(=O)c2nccc3ccccc23)cc1 | 3.59%
35 | CC1C=CCC2C(=O)N(c3cccc(C(=O)Nc4ccccc4)c3)C(=O)C12 (centres unmarked) | -2.8%
36 | Oc1ccccc1C1OCC2(CO1)COC(c1ccccc1O)OC2 (centres unmarked) | 3.6%
37 | Cc1ccc(C)c(NC(=O)C2CC=CCC2C(=O)O)c1 (centres unmarked) | -3.37%
38 | CC1=C(C(=O)OCC2CCCO2)C(c2ccc(Br)cc2)NC(=O)N1 (centres unmarked) | 1.13%
39 | Cc1ccc2cc3cc(C(=O)NC(C)C)oc3nc2c1 | 0.208%
40 | Cc1ccc(CN(C(=O)NC23CC4CC(CC(C4)C2)C3)C2CCN(Cc3ccccc3)CC2)o1 | -5.3%
41 | Cn1c(=O)c(S(=O)C2CCCCC2)c(O)c2ccccc21 (centres unmarked) | -0.413%
42 | CCCCN(CC)CCCNC(=O)C1CCN(S(=O)(=O)CC)CC1 | 2.18%
43 | Cc1ccc(-c2csc(/C(C#N)=C/c3cccc4ccccc34)n2)c(C)c1 | -0.546%
44 | OCCN(CCO)CCc1ccccc1 | 1.9%
45 | COc1ccc(/C=C2/Sc3ccccc3C2=O)c(OC)c1 | -5.9%
46 | c1ccc2c(c1)nc(NCc1ccncc1)n2CCN1CCCCC1 | 0.032%
47 | COc1cccc(/C=C2/CCCC3=C2OC(N)=C(C#N)C3c2cccc(OC)c2OC)c1OC (centres unmarked) | 3.94%
48 | N#CC1=C(N)Oc2cc(N)ccc2C1c1ccsc1 (centres unmarked) | -4.11%
49 | CCN1C(=O)C2(C(C#N)=C(N)Oc3[nH]nc(-c4ccc(C)cc4)c32)c2ccccc21 (centres unmarked) | 0.658%
50 | CCOC(=O)c1nc2ncc([N+](=O)[O-])cn2n1 | 2.65%

Row | Compound | % Inhibition @ 10 uM
51 | Cc1ccsc1C1CC(=O)NC(SCc2ccccc2)=C1C#N (centres unmarked) | -2.89%
52 | O=C(Cc1ccc(Cl)cc1)Nc1ccc(S(=O)(=O)Nc2cnc3ccccc3n2)cc1 | -5.06%
53 | O=S(=O)(c1c[nH]cn1)N1CCN(Cc2ccccc2)CC1 | -0.499%
54 | CCc1nc2ccccc2n1CC(O)COc1ccc(Cl)cc1 (centres unmarked) | -2.74%
55 | O=C(NCCO)C1CC(=O)N(c2ccccc2)C1 (centres unmarked) | -0.996%
56 | Oc1c(/C=N/CCCn2ccnc2)c(-c2ccccc2)nn1-c1nc2ccccc2s1 | 3.65%
57 | Cn1cc(Br)c(C(=O)Nc2sc3c(c2C(N)=O)CCCCC3)n1 | 51.9%
58 | O=C(O)CNC(=O)C1CCCN1C(=O)CNC(=O)OCc1ccccc1 (centres unmarked) (HELM PEPTIDE1{[O=C(OCc1ccccc1)[*:2]].G.[O=C(C1CCCN1[*:1])[*:2]].G}$$$$V2.0) | -5.51%
59 | c1cnc2c(SCC3CCOCO3)cccc2c1 (centres unmarked) | 2.68%
60 | O=C1NC(=O)/C(=C\c2ccc3c(c2)OCO3)S1 | 3.66%
61 | CCOC(=O)N1CCC(Nc2nn3nnnc3c3ccccc23)CC1 | 0.802%
62 | O=C1NC2(CCCC2)C(=O)N1CCS(=O)(=O)Oc1ccccc1 | -5.28%
63 | COc1ccc(Oc2ccc(Oc3ccc(OC)cc3)cc2)cc1 | 4.41%
64 | Clc1ccc(CN2CCOCC2)c(Cl)c1 | -5.65%
65 | C=CCNC(=O)C(=O)Nc1cccc(Cl)c1 | -5.9%
66 | COc1ccc(C(=O)Nc2cccc(C)c2C(=O)O)cc1 | -1.41%
67 | COc1ccc2c(c1)C1=NN(C(C)=O)C(c3ccc(N(C)C)cc3)C1CC2 (centres unmarked) | 4.78%
68 | O=C(NCCc1ccccc1)c1ccccc1CN1C(=O)c2ccccc2C1=O | 20.3%
69 | NC(=O)c1c(NC(=O)COc2ccccc2Br)sc2c1CCCCCC2 | -3.83%
70 | COc1cccc(N/C(=N\C(C)=O)Nc2nc(C)cc(C)n2)c1 | -0.553%
71 | O=C(O)CC(NS(=O)(=O)Cc1ccccc1)c1ccc(OC2CCCC2)cc1 (centres unmarked) | 5.13%
72 | C/C(=N\[C@@H](CS(=O)(=O)Cc1ccccc1)C(=O)NCC#N)NS(=O)(=O)c1ccccc1 | -3.14%
73 | C=CCc1cccc2cc(C(=O)Nc3ccccc3)c(=O)oc12 | -4.08%
74 | O=S(=O)(NC1CCCCC1)c1ccc(S(=O)(=O)N(Cc2ccccc2F)C2CC2)cc1 | 6.7%
75 | CCOC(=O)c1ccc(NC(=O)/C=C/c2ccc3c(c2)OCO3)cc1 | -1.84%

Row | Compound | % Inhibition @ 10 uM
76 | COc1ccc(CNCc2c(C(=O)O)n(Cc3ccccc3)c3cc(C)ccc23)cc1OC | 5.68%
77 | O=C(c1cc2ccc3cccnc3c2[nH]1)N1CCC(c2ccccc2)C1 (centres unmarked) | -0.528%
78 | CC(NC(=O)CN(c1ccccc1F)S(=O)(=O)c1ccccc1)c1ccccc1 (centres unmarked) | 0.189%
79 | Oc1ccc(Nc2nc(-c3ccc(Cl)cc3)cs2)cc1 | -2.43%
80 | CCc1cc2c(cc3c(=O)n(CCCC(=O)NCc4cccc(OC)c4OC)ncn32)s1 | -1.7%
81 | Cc1cccc(C(=O)Nc2ccc(S(=O)(=O)Nc3nc(C)cc(C)n3)cc2)c1 | -1.38%
82 | COc1ccc(CCNC(=O)CSc2nc(O)c3cnn(-c4ccc(C)cc4)c3n2)cc1OC | 0.208%
83 | O=C(Cc1coc2ccc3ccccc3c12)NCc1cccnc1 | -1.07%
84 | CCN(CC)CCCNC(=O)c1nc(CS(=O)(=O)c2ccccc2)no1 | 15.6%
85 | CC(C)CCn1c(CN2CCN(C(=O)c3ccco3)CC2)nc2c1c(=O)n(C)c(=O)n2C | 2%
86 | COc1ccc(Cl)cc1C=C1C(=O)N(C)C(=O)N(C)C1=O | 5.94%
87 | CCN(CC)CCCC(C)NC(C)=C1C(=O)N(C)C(=O)N(C)C1=O (centres unmarked) | 5.98%
88 | CC1=C(C(=O)OCCc2ccccc2)C(c2ccccc2)NC(=O)N1 (centres unmarked) | 0.736%
89 | CN1C(=O)/C(=C(O)/C=C/c2ccc(Cl)cc2)C2c3ccccc3OC13CCCC23 (centres unmarked) | -7.21%
90 | COc1cc(NC(=O)c2cc(OC)c(OC)c(OC)c2)c2ncccc2c1 | -1.89%
91 | CC(C)n1c(SCc2ccc(Cl)cc2)nc2c1c(=O)[nH]c(=O)n2C | -6.7%
92 | CC1=C(C(=O)N2CCOCC2)C(c2cc(Br)ccc2F)C2=C(O)CCCC2=N1 (centres unmarked) | 1.86%
93 | COc1ccc2cc3c(N)nn(C(=O)CCS(=O)(=O)c4ccccc4)c3nc2c1 | 2.5%
94 | CCOc1ccc(CCNCc2c(C(=O)O)n(Cc3ccccc3C)c3cc(OC)ccc23)cc1 | -7.21%
95 | COc1ccc(-c2cc(/N=C(/NC3CCCCC3)SC)[nH]n2)cc1OC | -4.07%
96 | CC(C)CCCN/C=C1/C(=O)NC(=O)N(c2ccc(Br)cc2)C1=O | 4.6%
97 | COc1ccc(C2C3C(=O)N(c4ccc(C#N)cc4)C(=O)C3ON2c2ccccc2)cc1 (centres unmarked) | -6.51%
98 | Nc1cc(O)nc(SCc2nc3ccccc3n2Cc2ccccc2)n1 | -2.6%
